# In ChEMBL document CHEMBL4888484, “Replenishing the malaria drug discovery pipeline: Screening and hit evaluation of the MMV Hit Generation Library 1 (HGL1) against asexual blood stage Plasmodium falciparum ,using a nano luciferase reporter read-out” (2022):
# In all, about 4,800 compounds went through this assay and about 420 (8.8%) showed an effect of 50% or more. This is one part of the list.
# System: Plasmodium falciparum
# Assay: Confirmatory screen in NF54 nanoGlo assay, in single point, at 2uM, 72h
# Type: functional, Erythrocyte
# Settings: timepoint 72 hour
row,SMILES,% Inhibition [%]
1,CC1CN(S(=O)(=O)CC2CCOC2)c2ccc(F)cc2O1 (centres undefined),-2
2,O=C(NCCCN1CCCC1=O)c1cn2ccnc(-c3ccccc3)c2n1,-12
3,O=C1CCC[C@H](C(=O)Nc2cnn(CC(F)(F)F)c2)N1,-8
4,C[C@@H](NC(=O)c1ccccc1F)c1ccccc1,6
5,CN(CC(C)(CO)CO)C(=O)c1coc2ccccc12,-3
6,Cc1cc2nc(C)c(=O)n(Cc3ccc(C(=O)NCCCN4CCCC[C@@H]4C)cc3)c2cc1C,1
7,COc1ccc(N(Cc2ccc(F)cc2)S(=O)(=O)c2ccc3nncn3c2)cc1,-13
8,Cc1cc(Cl)ccc1S(=O)(=O)N1CCc2nnc([C@H]3CCN(C(C)C)C3)n2CC1,1
9,O=C(NCc1cccnc1)c1cnn2c3c(cnc12)CCCC3,-4
10,Cc1cc(N)nc(Nc2ccc(Nc3ccccc3)cc2)n1,87
11,CCn1c(=O)c(N2CCC[C@H](C(=O)NCCc3c[nH]c4ccccc34)C2)nc2ccccc21,-2
12,CCOC1CC(NC2CC(c3ccc(F)cc3)C2)C12CCC2 (centres undefined),67
13,CCOc1ccc(CNC(=O)c2sccc2NC(=O)c2cnccn2)cc1,-13
14,Clc1ccc(-c2noc(C3CNC3)n2)cc1,21
15,CCOCCC1(CN=C(N)N2CCCCC2)CCCC1,0
16,O=c1[nH]nc(-c2ccc3c(c2)CCC3)c2ccccc12,-7
17,Cc1noc(C)c1CNc1cc(S(=O)(=O)N2CCCCC2)ccc1Oc1ccccc1,1
18,CCCCC(C(=O)Nc1cc(C)on1)N1CCN(C)CC1C (centres undefined),-7
19,c1ccc(-c2ccccc2NCn2nnc3ccccc32)cc1,-4
20,Cc1ccc(NC(=O)c2cn(CC3(O)CCN(Cc4ccccc4)CC3)nn2)c(C)c1,1
21,CCOc1cc(CNc2cccc3ccccc23)cc(Br)c1OCC(=O)NC(C)(C)C,89
22,O=C(NCC(F)(F)F)Nc1ccc(CO)cc1,-1
23,CCOc1c(CNC(C)(C)CC(C)(C)C)cccc1OC,-1
24,Cc1cccc(C)c1OCC(C)NC(=O)N1CCCC(CS(C)(=O)=O)C1 (centres undefined),-6
25,CC(C)(C)OC(=O)N1CC(NC(=O)C2CC2c2ccccc2C(F)(F)F)C1 (centres undefined),-16
26,Cc1cc(OCc2ccc(C(=O)Nc3ncn(Cc4c(F)cccc4Cl)n3)o2)ccc1Cl,0

row,SMILES,% Inhibition [%]
1,CCc1ccccc1Nc1nc(C)c(C(=O)NCc2cccnc2)s1,-22
2,COc1ccc(CCNC(=O)CCCC(=O)NCc2ccccc2)cc1OC,-14
3,Cc1nc(CCNC(=O)Cc2nn(C)c3ccccc23)c(C)o1,1
4,CCC(=O)N1CCC(Nc2cccc(-c3nc(C4CC4)n[nH]3)c2)CC1,-14
5,Cc1ccc(-c2nc3ncccn3c2Nc2ccc3c(c2)OCCO3)o1,-8
6,O=C(NCc1ccco1)c1nc(-c2ccncc2)cs1,4
7,COc1ccc(C2=NN(C(C#N)c3cccc(OC)c3O)C(c3ccccc3)C2)cc1 (centres undefined),4
8,O=C(CN1CCOCC1)Nc1ccc(N2CCOCC2)c(F)c1,-16
9,C[C@@H](C(=O)N1CCN(C/C=C/c2ccccc2)CC1)N1Cc2ccccc2C1=O,-4
10,CN(C)C(=O)NCC1(NC(=O)N(C)C)CCC1,-3
11,CN(C)S(=O)(=O)N(CCN1CCCC1)[C@H]1CCN(C(=O)CCC2CCCC2)C1,6
12,O=S1(=O)CC[C@H](NS(=O)(=O)c2ccc3c(c2)OCCO3)C1,-8
13,CCOC(=O)c1c(CN(C)C)n(-c2ccc(OC)cc2)c2ccc(Oc3nccc(Nc4ccc(C)cc4)c3C#N)cc12,-4
14,COC(=O)c1nc(NC(=O)C2(C)CCCC2)sc1C(C)C,-12
15,Cc1cc(=O)n2ncc(C(=O)NCc3cc(F)cc(F)c3)c2[nH]1,-13
16,CC(C)(C)OC(=O)NC1CCC(N2C(=O)CCC2=O)CC1 (centres undefined),-4
17,COc1ccc(F)c(NC(=O)N(CCO)C(C)C)c1,5
18,COC1(C)CC(NC(=O)C(C(C)C)N2CCCS2(=O)=O)C1(C)C (centres undefined),-9
19,Cc1cc(NC(=O)CS(=O)(=O)Cc2c(C)noc2C)no1,-11
20,CC(C)c1cccc(CN2C(=O)N[C@]3(CC(C)(C)OC3(C)C)C2=O)n1,-6
21,O=C(Cn1nnc2ccccc21)N(Cc1cccnc1)C1(C(=O)Nc2ccc3c(c2)OCO3)CCCCC1,4
22,COc1ccccc1OCc1nn2c([C@H]3CCCN(S(C)(=O)=O)C3)nnc2s1,-3
23,Cc1cc(C)c2ccc3ccccc3c2n1,-4
24,Cn1c(N)c(S(=O)(=O)N2CCN(c3ccccc3Cl)CC2)c(=O)n(C)c1=O,61
25,Cc1cc(S(=O)(=O)N(C)Cc2ccco2)cc2c1NC(=O)C2(C)C,-2
26,Cc1cc(C)nc(N[C@H](c2ccc(F)cc2)c2cc(C)sc2NC(=O)c2ccccc2)n1,0

row,SMILES,% Inhibition [%]
1,O=C(C[C@@H]1CCNC[C@@H]1Cc1cc(COc2ccccc2)on1)NCc1ccc(F)cc1,-2
2,CCC(=O)N1CCN(S(=O)(=O)c2ccc(C)cc2)[C@H]1C,-2
3,CC(C)Cn1c(=O)c2sccc2n(CC(=O)N2CCCC2)c1=O,6
4,CCN(C(C)=O)c1ccc(Cl)cc1F,-13
5,Cc1n(CC(=O)c2ccccc2)c2ccccc2[n+]1CC(=O)c1ccccc1,68
6,COC(=O)N1CC[C@H](NC(=O)OC(C)(C)C)C1,0
7,Cc1ccc(CN2CCN(CC(=O)NC3CCCCCCC3)C2=O)cc1,-8
8,O=c1ccn2c(n1)O[C@H]1[C@H](OC3CCCCO3)[C@@H](COC3CCCCO3)O[C@H]12 (some centres undefined),-15
9,CN(C)CCNCc1ccc(Cl)c(Cl)c1,-11
10,CC(=O)N1CC[C@H](CC(=O)N(C)Cc2ccccc2)C1,-3
11,CC(C)C(=O)NC1CCN(c2nc(Cc3ccc(F)cc3)no2)CC1,-3
12,Cc1csc(C(C)(C)NC(=O)NCCC2=CCCC2)n1,-3
13,CCOc1ccc(NC(=O)N(Cc2cn(CC)c3ccccc23)[C@@H](C)CC)cc1,-14
14,c1ccc(CC2CCN(c3[nH]cnc4ncnc3-4)CC2)cc1,4
15,Cc1c(CCO)c(=O)n(-c2ccccc2)n1S(=O)(=O)c1c(Cl)cc(Cl)cc1Cl,-7
16,CC[n+]1c(C)sc2cc(-c3ccccc3)sc21,-15
17,CCC[C@@]1(C)C(=O)NCCN1Cc1nnc(-c2ccc(Cl)cc2)n1C,-10
18,Cc1cc(CS(=O)(=O)N2CCC[C@H]2c2noc(C)n2)no1,4
19,O=C(c1ccc2c(c1)OCO2)N1CCn2c1nc1ccccc12,65
20,Cc1ccccc1Nc1nnc(-c2ccccc2)c(-c2ccccc2)n1,3
21,O=C(CC(F)(F)F)NCc1ccccn1,1
22,O=C(CN1CCCC1)N1CCCN(S(=O)(=O)c2ccccc2)[C@H]1c1ccccc1,-7
23,Cn1cc(-c2csc(NC(=O)c3ccc4[nH]cnc4c3)n2)cn1,8
24,COc1ccc2cc3n(c2c1)C[C@](C(=O)NC1CCCCCC1)(c1ccccc1)N(Cc1ccc(OC(C)C)cc1)C3=O,-14
25,CC1CCC2(C)c3[nH]c4ccccc4c3CCCN2C1=O (centres undefined),-6
26,C[C@@]1(C(N)=O)CCCCN1Cc1cncs1,-3

row,SMILES,% Inhibition [%]
1,Cc1cnc(C)c(N2CCCN(c3cncc(F)c3)CC2)n1,-10
2,COc1nscc1CN(C)C(=O)c1ccc2c(c1)C(C)(C)CO2,-11
3,Cn1c(=O)n(C)c2cc3c(cc21)NC(=O)CS3(=O)=O,3
4,Cc1nn(C)c(N)c1C(=O)N(C1CCC1)C1CCC1,-12
5,CC(C(=O)Nc1cc(F)ccc1F)N1CCCC(c2nncn2C(C)C)C1 (centres undefined),-3
6,O=C(O)CC1(NC(=O)c2cc(Oc3ccccc3)ccn2)CCC1,-7
7,Cc1cc(C)n(-c2nc(Nc3ccc(Cl)cc3)nc(Nc3ccc(Cl)cc3)n2)n1,82
8,O=C(OCc1cncs1)c1ccccc1,2
9,Cn1n[n+](CC(=O)Nc2ccccc2Cl)c2ccccc21,-5
10,COc1ccc(CN2CC[C@@H]3C(=O)NCCCCCCN(Cc4ccncc4)[C@@H]3C2)cc1Cn1ccnc1,47
11,O=C(COC(F)F)N1CCc2ccncc21,-6
12,O=C(Nc1cccc2[nH]ncc12)c1ccco1,-4
13,COc1ncnc(OC)c1CNc1cnn(C)c1,-2
14,CC[C@](C)(NCC#Cc1ccc(C(F)(F)F)cc1)C(N)=O,0
15,CCn1ccc([C@H](C)NC(=O)c2cc(-c3ccc(OC)cc3)nc3c2c(C)nn3C)n1,8
16,O=C(NCC(=O)N1CCC[C@H]1c1ccc2c(c1)OCCCO2)c1ccc(Br)cc1,-13
17,Cc1cc(C)cc(NC(=O)CCn2c(=O)cc(C(F)(F)F)c3cn(C(C)C)nc32)c1,-14
18,O=C1NC(=O)[C@@H]2CN(S(=O)(=O)c3cc(F)cc(Cl)c3)C[C@H]12,-6
19,C[C@H](Nc1ccc(N2CCOCC2)nc1)c1cccc(CO)c1,-1
20,O=C(NCCCc1ccccc1)c1ccc(CN2C(=O)CCn3nccc32)cc1,24
21,Cc1cccc(CN2C[C@@H](c3noc(-c4ccccn4)n3)CC2=O)c1,-1
22,CCc1nccn1CC(=O)Nc1cc(C)nn1C,-16
23,CCCNC(=O)CS(=O)(=O)Cc1cccc(Br)c1C,-18
24,COc1ccc(CN2CCc3nn(CC4CC4)c(=O)n3CC2)cc1,-10
25,CCN1c2cc(C)ccc2-n2cccc2C12CCNCC2,-5
26,Cc1cccc(N2C(=O)c3cc(Br)ccc3N[C@@H]2c2ccc(N(C)C)cc2)c1,-2
